Assay results reported in PubChem BioAssay AID485281 (National Center for Advancing Translational Sciences (NCATS), 2010).
The whole screen tested about 350,000 compounds, of which about 260 (0.074%) were called active. The shares of active, inactive and inconclusive entries below differ from those in the screen. The call rests on the fitted dose curve; in most records, active means well fitted inhibition curve with a large enough effect; inconclusive means small, poorly fitted or top-dose-only effect; inactive means no such curve, though single readings can be large or run the other way. Potencies beside an inconclusive call are fits to weak or partial responses and may not hold up.

target: Ferritin light chain (Equus caballus) (UniProt P02791); experiment: qHTS Assay for Identification of Novel General Anesthetics; settings: apoferritin/1-aminoanthracene competitive binding, fluorescence; series mostly up to 77.5 µM; further: nearly all actives have a fitted effect of over 20% in size
Outline: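 Steps: apoferritin (10 uM) was premixed with half-saturated 1-AMA in PBS, compounds were pin-transferred, plates stood 10 min at room temperature, fluorescence was read at 380/535 nm, and curves were fitted with a Hill equation.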
Potency means the concentration at half of the fitted maximal effect; tags describe the fitted curve by direction and shape.

Sequence of UniProt P02791 (P02791 whole entry, looked up): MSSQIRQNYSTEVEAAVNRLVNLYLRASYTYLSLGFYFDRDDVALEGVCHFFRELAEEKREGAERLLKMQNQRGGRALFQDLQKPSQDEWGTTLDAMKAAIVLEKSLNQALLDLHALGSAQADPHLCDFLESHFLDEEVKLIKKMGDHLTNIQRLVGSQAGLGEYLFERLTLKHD

Potency, inactive:
N#Cc1c(NC(=O)CN2CCOCC2)oc(-c2ccccc2)c1-c1ccccc1, COc1ccccc1-c1cc(C(F)(F)F)nc(S(=O)(=O)CCCC(=O)NC(C)C)n1, Cc1ccc(NC(=O)c2cc(=O)n(Cc3ccccc3)c(=O)[nH]2)cc1C, CNC(=O)c1sccc1-n1cccc1, Cc1ccc(C)c2sc(N3CCN(C(=O)c4ccco4)CC3)nc12, CCc1ccccc1NC(=O)CSc1nc2n[nH]c(C)c2c(=N)n1-c1cccc(OC)c1, Cc1cccn2c(=O)c3cc(C#N)c(=O)n(Cc4cccnc4)c3nc12, C=CC(C1=CC(=O)C(OC)=CC1=O)c1ccccc1 (configuration not stated), CCCN1CCN(C(=O)c2cc(COc3ccc4ncccc4c3)on2)CC1, O=C(c1ccc([N+](=O)[O-])s1)N1CCN(c2ccccc2)CC1, CCOC(=O)c1ccc(CC(=O)c2ccc(O)c(O)c2O)o1, COc1ccc(S(=O)(=O)/N=C2/NC(=O)/C(=C\c3ccco3)S2)cc1, Cc1[nH]c2ccccc2c1C(=O)COC(=O)Cn1cnc2ccccc21, CCOc1ccc(C2=C(C(=O)CC)Sc3nncn3N2C(=O)CC)cc1, COC(=O)c1c(SC)nc2ccccc2c1OCc1ccc(C)cc1

Potency, active:
Nc1ccc(C2CCCc3nonc32)c2nonc12 (configuration not stated) 17.8 µM

Potency, inconclusive:
CS(=O)(=O)N1CCCC(c2nc(-c3ccc(S(=O)(=O)NCc4ccccc4)cc3)no2)C1 (configuration not stated) 15.8 µM [inhibitor, partial curve], CCC1CCc2sc(C(=O)NCc3ccccn3)cc2C1 (configuration not stated) 31.6 µM [inhibitor, single point], Cc1cccc(CN2C(=O)c3ccccc3S(=O)(=O)c3ccc(C(=O)N4CCCC4)cc32)c1 31.6 µM [inhibitor, partial curve], Cc1csc(NC(=O)CSc2nnc(-c3ccoc3C)n2CCc2ccccc2)n1 39.8 µM [inhibitor, partial curve], O=C(CN1CCc2ccccc2C1)Nc1ccccc1C(F)(F)F 25.1 µM [inhibitor, single point], CC(C)OCCCNc1ncc2c(n1)CC(c1ccccc1)CC2=O (configuration not stated) 25.1 µM [inhibitor, partial curve], O=C(Nc1ccc(Cl)c(Cl)c1)N(CCCN1CCOCC1)Cc1cccs1 28.2 µM [inhibitor, partial curve], CCOC(=O)c1ccc(NC(=O)c2nsc3ccccc23)cc1 15.8 µM [inhibitor, partial curve], c1cncc(CNc2ccc3c(c2)OCO3)c1 14.1 µM [inhibitor, partial curve], CCOC(=O)c1cc(S(=O)(=O)N2CCN(c3cc(Cl)ccc3C)CC2)[nH]n1 28.2 µM [inhibitor, partial curve], Cc1ccc(C(=O)COC(=O)CCN2C(=O)C3C4CCC(C4)C3C2=O)cc1[N+](=O)[O-] (configuration not stated) 11.2 µM [inhibitor, partial curve], C=CCC1(CC=C)CCCN1C(=O)c1cc(COc2ccc(-n3cncn3)cc2)on1 35.5 µM [inhibitor, single point], N#Cc1ccc(CSc2ncccn2)cc1 15.8 µM [inhibitor, partial curve], CC/C(=N\O)C(C)(C)/[N+]([O-])=C/c1ccc(Br)cc1 50.1 µM [inhibitor, single point], CC(C)CC(=O)Nc1ccccc1Oc1ccccc1 50.1 µM [inhibitor, single point], CCN1CCN(C(c2cccnc2)c2cc(Cl)c3cccnc3c2O)CC1 (configuration not stated) 25.1 µM [inhibitor, partial curve], CCC(=O)OCCNc1cc(Sc2nc3ccccc3[nH]2)c2nonc2c1[N+](=O)[O-] 50.1 µM [inhibitor, single point], CC(C)=CCC/C(C)=C/Cc1c(O)ccc(C(=O)/C=C/c2ccc(O)cc2)c1O 50.1 µM [inhibitor, single point], O=C(NCc1cccnc1)c1ccc(COc2ccc(Cl)cc2Cl)o1 28.2 µM [inhibitor, partial curve], CCCC1(C(=O)OCC)NC(c2ccc(N(C)C)cc2)C2C(=O)N(c3ccc(F)cc3)C(=O)C21 (configuration not stated) 39.8 µM [inhibitor, single point], COc1ccccc1OCCC(=O)OCC(=O)c1[nH]c(C)c(C(C)=O)c1C 35.5 µM [inhibitor, partial curve], COc1ccc2c(c1)c(C(O)CN1CCC3(CC1)OCCO3)c(C)n2C (configuration not stated) 50.1 µM [inhibitor, single point], O=c1cc(CSc2nnc(COc3ccccc3)o2)c2ccccc2[nH]1 17.8 µM [inhibitor, partial curve], O=C(CCc1nnc(CCCCc2ccccc2)o1)N1CCC(N2CCCC2)CC1 35.5 µM [inhibitor, partial curve], Cc1noc2ncnc(Sc3c(Cl)cccc3Cl)c12 31.6 µM [inhibitor, partial curve], CCCCNS(=O)(=O)c1ccc(NS(=O)(=O)c2c(C)cc(C)cc2C)cc1 31.6 µM [inhibitor, partial curve], C=CCn1c(NCc2cc(Cl)ccc2O)nc2ccccc21 28.2 µM [inhibitor, partial curve], Cc1ccccc1C(=O)Oc1ccc2ccc(O)cc2c1 22.4 µM [inhibitor, partial curve], CN(Cc1ccccc1)c1ccc(N2C(=O)CCCC2=O)cc1[N+](=O)[O-] 50.1 µM [inhibitor, single point], COc1cccc(NC(=O)CC2SC(=Nc3ccccc3)NC2=O)c1 (configuration not stated) 25.1 µM [inhibitor, partial curve], O=C(c1cccs1)n1cc(C(=S)N2CCOCC2)c2ccccc21 28.2 µM [inhibitor, partial curve], CCCOc1ccc(/C(O)=C2/C(=O)C(=O)N(CCCN3CCOCC3)C2c2ccncc2)cc1 (configuration not stated) 12.6 µM [inhibitor, partial curve], Cc1c2c(nc3c(C(=O)NC4CCCCC4C)cnn13)CCCC2 (configuration not stated) 22.4 µM [inhibitor, partial curve], Cc1cc(C(=O)Nc2ccccc2Cc2ccccc2)no1 25.1 µM [inhibitor, partial curve], COC(=O)C(NC(=O)c1ccccc1Cl)(Nc1ncc(S(=O)(=O)c2ccc([N+](=O)[O-])cc2)s1)C(F)(F)F (configuration not stated) 20 µM [inhibitor, partial curve], O=[N+]([O-])c1ccc(Sc2nccn2Cc2ccccc2)cc1 31.6 µM [inhibitor, partial curve], Cc1ccc(-c2nc(CCNC(=O)C(=O)Nc3ccc(F)cc3F)cs2)cc1 11.2 µM [inhibitor, partial curve], CC1CCC(NC(=O)c2ccc(CS(=O)(=O)Cc3ccccc3F)o2)CC1 (configuration not stated) 50.1 µM [inhibitor, single point], CN(C)/C(CN1CCN(C=O)CC1)=C1\N=C(c2ccccc2)OC1=O 50.1 µM [inhibitor, single point], COc1ccc(C(=O)Nc2nc(C)cc(C)n2)cc1 39.8 µM [inhibitor, single point], CCN(CC)C1CCN(C(=O)c2cc(COc3cccc4cccnc34)on2)C1 (configuration not stated) 22.4 µM [inhibitor, partial curve], CC(C)C(=O)Nc1c(C(=O)N2CCN(c3ccccc3F)CC2)oc2ccccc12 31.6 µM [inhibitor, single point], Cc1ccc(C(=O)CSc2nnc(COc3cccc(C)c3)o2)cc1 17.8 µM [inhibitor, partial curve], CC(=O)Nc1ccc(S(=O)(=O)NCC2CCC(C(=O)N3CCCCCC3)CC2)cc1 (configuration not stated) 35.5 µM [inhibitor, partial curve], CCOC(=O)c1cnn(-c2nc(-c3ccccc3)cs2)c1C(F)(F)F 28.2 µM [inhibitor, partial curve], COc1cc(C2CC(=O)N3CN(Cc4ccccc4)CSC3=C2C#N)ccc1OCc1ccccc1 (configuration not stated) 28.2 µM [inhibitor, partial curve], CCCCCCOc1ccc(C(CC(=O)O)C(N)=O)cc1 (configuration not stated) 44.7 µM [inhibitor, partial curve], CCOc1ccc(-c2n[nH]c(C)c2-c2ccccc2OC)c(O)c1 10 µM [inhibitor, partial curve], COc1cccc(Cn2nc(C(=O)O)c3ccccc3c2=O)c1 22.4 µM [inhibitor, partial curve], Cc1ccc(S(=O)(=O)NCc2ccco2)cc1C 35.5 µM [inhibitor, partial curve], O=c1[nH]c2cccc(Cl)c2n(CCNc2ncc(C(F)(F)F)cc2Cl)c1=O 39.8 µM [inhibitor, partial curve]
